Results published in publication PMC4336329 (PLoS ONE, 2015).
The campaign covered roughly 310,000 compounds. About 14,000 (4.5%) showed an effect of 50% or more. The effect is printed as a negative number. The list shows a part of the results.

target: human ether-à-go-go-related gene (hERG) potassium channel (human, UniProt Q12809); experiment: primary screen, population patch clamp on CHO cells stably expressing hERG
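Also: peak tail current of the secondary pulse compared with the same well before compound.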

Sequence of human ether-à-go-go-related gene (hERG) potassium channel (Q12809 whole entry, looked up): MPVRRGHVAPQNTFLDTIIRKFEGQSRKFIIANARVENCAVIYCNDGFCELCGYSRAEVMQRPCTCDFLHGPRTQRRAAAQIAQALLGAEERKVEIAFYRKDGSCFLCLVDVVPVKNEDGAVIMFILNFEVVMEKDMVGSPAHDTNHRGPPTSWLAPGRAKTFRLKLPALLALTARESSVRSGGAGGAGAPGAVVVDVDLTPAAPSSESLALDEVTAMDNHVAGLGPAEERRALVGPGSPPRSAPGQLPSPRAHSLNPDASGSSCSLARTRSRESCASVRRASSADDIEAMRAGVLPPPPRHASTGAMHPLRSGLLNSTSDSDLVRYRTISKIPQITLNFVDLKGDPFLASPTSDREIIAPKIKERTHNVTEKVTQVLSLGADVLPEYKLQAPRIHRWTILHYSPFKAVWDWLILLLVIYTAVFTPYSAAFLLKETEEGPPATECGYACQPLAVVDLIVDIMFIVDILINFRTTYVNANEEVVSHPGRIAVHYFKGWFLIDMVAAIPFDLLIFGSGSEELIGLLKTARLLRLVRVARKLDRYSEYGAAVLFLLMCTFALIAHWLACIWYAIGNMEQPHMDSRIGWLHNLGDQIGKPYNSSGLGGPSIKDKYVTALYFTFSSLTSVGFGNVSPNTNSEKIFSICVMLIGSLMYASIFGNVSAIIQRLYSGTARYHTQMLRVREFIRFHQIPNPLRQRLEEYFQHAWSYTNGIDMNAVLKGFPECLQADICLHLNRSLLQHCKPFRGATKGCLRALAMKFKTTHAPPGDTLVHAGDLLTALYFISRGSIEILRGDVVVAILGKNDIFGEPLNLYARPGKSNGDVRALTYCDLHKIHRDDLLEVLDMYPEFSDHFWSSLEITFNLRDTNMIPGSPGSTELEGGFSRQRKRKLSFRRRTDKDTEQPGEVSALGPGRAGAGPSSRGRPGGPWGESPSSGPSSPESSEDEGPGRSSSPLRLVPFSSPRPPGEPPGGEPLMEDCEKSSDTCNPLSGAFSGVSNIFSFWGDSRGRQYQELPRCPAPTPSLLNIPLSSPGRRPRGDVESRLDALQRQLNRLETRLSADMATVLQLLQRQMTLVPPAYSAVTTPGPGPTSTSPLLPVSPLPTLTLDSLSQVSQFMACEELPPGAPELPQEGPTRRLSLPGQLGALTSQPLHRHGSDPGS

Row | Structure (SMILES) | hERG current change (%, negative = inhibition) at 10uM [%]
1 | CC1(C)CC(=O)C=C(c2ccc(Cl)c(C(F)(F)F)c2)C1 | -8.31
2 | O=C(CCc1nnc(CCCc2ccccc2)o1)NCCc1ccccc1 | -12
3 | Cc1ccc(-c2csc(NCCn3c(C(F)(F)F)nc4ccccc43)n2)cc1 | 5.75
4 | CC(=O)OC(C)[C@H]1CC[C@H]2[C@@H]3CC[C@H]4C[C@@H](OC(C)=O)CC[C@]4(C)C3=CC[C@]12C (stereo partly shown) | 13.2
5 | O=C1OC(c2ccc(Cl)cc2)=N/C1=C\C=C\c1ccco1 | 35.2
6 | COc1ccc(N(CC(=O)NCc2cccnc2)S(=O)(=O)c2ccccc2[N+](=O)[O-])c(OC)c1 | -17
7 | Cc1snc2sc(C(=O)c3ccc(Br)cc3)c(N)c12 | 0.295
8 | OCCC1CN(Cc2nc(-c3ccccc3)cs2)CCN1C1CCCC1 (stereo not shown) | -66.4
9 | CC(c1ccco1)N(C(=O)c1ccc(Cl)s1)c1ccccn1 (stereo not shown) | -4.54
10 | CC(=O)c1ccc(NC(=O)N2CCN(c3ccc(C)cc3)C(C)C2)cc1 (stereo not shown) | -19.6
11 | CC(On1nnc2ccc(S(=O)(=O)N3CCOCC3)cc21)C(=O)Nc1ccccc1F (stereo not shown) | -8.2
12 | CCCCNC(=O)C1CC(=O)N(C2CCCC2)C1 (stereo not shown) | 12.3
13 | Cc1ccc(S(=O)(=O)NCC(=O)Nc2ccc(C(F)(F)F)cc2)cc1 | 1.03
14 | CC(C)(C)NC(=O)Nc1ccccc1C(N)=O | 1.01
15 | CCN1CCN(CCNC(=O)c2ccc(/C=C3\Sc4ccccc4N(Cc4ccccc4F)C3=O)cc2)CC1 | -37.9
16 | COc1cc2ccccc2cc1C(=O)Nc1cc(C)ccn1 | 14.6
17 | COc1ccc(C(C)NC(=O)C2C(=O)NC3(C)CC2c2ccccc2O3)cc1 (stereo not shown) | -2.18
18 | Cc1cc(=O)n2[nH]cc(-c3ccccc3)c2n1 | 12
19 | CC(C)C(CCNCc1ccccn1)c1ccc(Cl)cc1 (stereo not shown) | -41.6
20 | N#Cc1cnn(-c2cccc(Cl)c2)c1-n1cccc1 | -13.8
21 | CC(C)c1ccc(S(=O)(=O)N2CCN(C(=O)CN3C(=O)NC4(CCCC4)C3=O)CC2)cc1 | -1.99
22 | COC(=O)CN1C(=O)C2(C(C#N)=C(N)Oc3cc(C)oc(=O)c32)c2ccccc21 (stereo not shown) | 16.5

Row | Structure (SMILES) | hERG current change (%, negative = inhibition) at 10uM [%]
23 | C=CCn1c(SCC(=O)NCc2ccc3c(c2)OCO3)nc2scc(-c3ccc(F)cc3)c2c1=O | 1.63
24 | CCOC(=O)C(CCCOc1ccc(C(C)CC)cc1)C(=O)OCC (stereo not shown) | 6.44
25 | CC(NC(=O)CCc1ccccc1)c1cc2c(cc1Cl)OCCO2 (stereo not shown) | -3.13
26 | CCOc1cc(C#N)c(NC(=O)c2ccco2)cc1OCC | -10.5
27 | O=C(Nc1cccc(OCC(=O)N2CCOCC2)c1)C1CCCCC1 | 1.77
28 | Cc1oc(-c2cccc(Cl)c2)nc1CS(=O)(=O)CC(=O)NCCN1CCOCC1 | -0.638
29 | CCOC(=O)c1cc(C(=O)Nc2ccccc2F)nn1C | -2.22
30 | O=C1CCCN1CCC1CCN(C(=O)Nc2ccccc2)CC1 | -3.69
31 | CC(C)CC(=O)Nc1ccccc1N1CCN(c2ccccc2)CC1 | -2.38
32 | N#C/C(=C\c1ccc(N2CCCCC2)o1)C(N)=O | 7.71
33 | c1ccc(CCN2CN=C(Nc3nc4ccccc4o3)NC2)cc1 | -6.44
34 | CCCC(=O)n1nc(-c2ccco2)nc1N | 17
35 | COc1ccc(OC)c(N2C(=O)CCCC2=O)c1 | 18.4
36 | Cc1ccc(C(=O)N2CCN(C(=O)c3ccco3)CC2)cc1NC(=O)c1ccco1 | -44.1
37 | Cc1cc(CNC(=O)Cn2cc([N+](=O)[O-])cn2)c2ccccc2n1 | -11.5
38 | COC(=O)CCC(=O)Nc1ccc(NC(C)=O)cc1 | 20.9
39 | CCOC(=O)c1sc(N)c(C#N)c1CSc1nnc(C2CC2)n1N | 1.32
40 | Cc1noc(C)c1COc1ccc(C(=O)Nc2ncccc2O)cc1 | 11.5
41 | Cc1ccc2nc(N(CCCN(C)C)C(=O)CS(=O)(=O)c3ccccc3)sc2c1.Cl | -22.7
42 | CCCOc1ccc(-c2nc(C#N)c(N3CCN(C)CC3)o2)cc1 | -14.4
43 | O=S(=O)(NCc1ccccc1)NCc1ccccc1F | 7.69
